Key:
B/Lee/1940 (Lee) = assay: microbe, parasite or virus in culture; conditions: Influenza B virus, MDCK
[1] = test system: A/Hong Kong/8/1968 (HK; H3N2); assay: microbe, parasite or virus in culture; conditions: Influenza A virus, H3N2, MDCK

SMILES | EC50 (B/Lee/1940 (Lee)) [µM] | CC50 at 3 days (in vitro) [µM] | EC50 [1] [µM]
CCC(CC)O[C@@H]1C=C(C(=O)O)C[C@H](N=C(N2C(=O)C3CCC(C)CC3C2=O)N2C(=O)C3CCC(C)CC3C2=O)[C@H]1NC(C)=O (stereo partly drawn) [OSC-GCDI(CM)] | 8.36 ± 1 |  | 
NC(=O)c1ncn([C@@H]2O[C@H](CO)[C@@H](O)[C@H]2O)n1 [RBV, Ribavirin, reference compound] |  | > 100 | 21.8 ± 1.1
